Assay [1] has as its target T1, full-length human CD137 with C-terminal 3xMyc tag displayed on yeast cells (human, UniProt Q07011 24-255).
T1 construct: whole, on cells; not used; also called hCD137; not shown: C-terminal 3xMyc tag
As to the kind of experiment: FACS titration on yeast displaying full-length hCD137-3xMyc, no protease; data batch 4.

Assay [2] addresses T1, full-length human CD137 with C-terminal …. As to the kind of experiment: KD divided by KD of parental antibody (TY21242 or TY23310); FACS on yeast hCD137; data batch 4.
Assay [3] deals with CD137 on Jurkat-CD137-NFkB-luciferase reporter cells. In words: cell-based or functional assay.
The target of assay [4] is human CD137 on activated human T cells (human, UniProt Q07011 24-255). As to the kind of experiment: cell-based or functional assay.
Assay [5] concerns the target T1, full-length human CD137 with C-terminal …. As to the kind of experiment: KD divided by KD of parental antibody; FACS on yeast hCD137; data batch 4.
For assay [6] the target is unchanged. In words: KD divided by KD of parental antibody; FACS on yeast hCD137; data batch 1.
Assay [7] shares this target. In words: KD divided by KD of parental antibody; FACS on yeast hCD137; data batch 2.
The target is the same in assay [8]. As to the kind of experiment: KD divided by KD of parental antibody; FACS on yeast hCD137; data batch 3.
The target is the same in assay [9]. In words: FACS titration on yeast displaying full-length hCD137-3xMyc, no protease; data batch 1.
For assay [10] the target is unchanged. As to the kind of experiment: FACS titration on yeast displaying full-length hCD137-3xMyc, no protease; data batch 2.
Assay [11] has the same target. In words: FACS titration on yeast displaying full-length hCD137-3xMyc, no protease; data batch 3.
Assay [12] addresses T2, His-tagged recombinant human FcγRIIa (human, UniProt P12318 36-218, limits assumed).
T2 construct: His-tagged; also called hFcγRIIa
T2 sequence (looked up): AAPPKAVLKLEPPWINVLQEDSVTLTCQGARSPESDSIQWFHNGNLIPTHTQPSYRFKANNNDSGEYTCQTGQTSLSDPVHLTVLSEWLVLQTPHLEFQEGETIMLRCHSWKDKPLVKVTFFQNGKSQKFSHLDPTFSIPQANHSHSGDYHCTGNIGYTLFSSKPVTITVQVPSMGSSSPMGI
In words: BLI (Fortebio), His-tagged FcγR captured on anti-Penta-His sensor, antibody in solution, steady state analysis.

Assay [13] addresses T3, His-tagged recombinant human FcγRIIb (human, UniProt P31994 46-217, limits assumed).
T3 construct: His-tagged; also called hFcγRIIb
T3 sequence (looked up): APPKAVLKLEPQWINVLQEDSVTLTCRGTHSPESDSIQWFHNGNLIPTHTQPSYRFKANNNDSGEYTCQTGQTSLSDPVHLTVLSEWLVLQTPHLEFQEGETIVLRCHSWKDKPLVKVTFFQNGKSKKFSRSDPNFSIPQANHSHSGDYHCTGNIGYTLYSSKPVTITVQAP
Described as above.

Assay [14] addresses T4, hCD137 (antigen of the ELISA and FACS assays of Example 2) (human, UniProt Q07011 24-186, limits assumed).
T4 construct: also called human CD137
As to the kind of experiment: ELISA on hCD137.

Assay [15] concerns the target T4, hCD137 (antigen of the ELISA and FACS …). In words: FACS-based assay on hCD137.
Assay [16] shares this target. In words: FACS KD relative to parental antibody TY24118.
The target is the same in assay [17]. In words: ELISA EC50 relative to parental antibody TY24118.

B1: TY25369 (antibody, human IgG1, kappa)
heavy: EVQLVESGGGLVQPGGSLRLSCAASGFSLSTGGVGVGWIRQAPGKGLEWLALIDWADDKYYSPSLKSRLTISRDNSKNTLYLQLNSLRAEDTAVYYCARGGSDTVIGDWFAYWGQGTLVTVSS[in this place human IgG1 constant region with changes]
light: EVGSYPTDLDACADAPNHCHFSGRGGGPLGLAGGSDIQLTQSPSSLSASVGDRVTITCRASQSIGSYLAWYQQKPGKAPKLLIYDASNLETGVPSRFSGSGSGTDFTLTISSLQPEDFATYYCQQGYYLWTFGQGTKVEIKRTVAAPSVFIFPPSDEQLKSGTASVVCLLNNFYPREAKVQWKVDNALQSGNSQESVTEQDSKDSTYSLSSTLTLSKADYEKHKVYACEVTHQGLSSPVTKSFNRGEC
notes: Masked, uncleaved; hIgG1 S267E/L328F
In [1], B1 came in with a Kd of 178 nM. Also, the Masking efficiency in [2] was 1010 fold.

B2: TY23310 (antibody, human IgG1, kappa)
heavy: EVQLVESGGGLVQPGGSLRLSCAASGFSLSTGGVGVGWIRQAPGKGLEWLALIDWADDKYYSPSLKSRLTISRDNSKNTLYLQLNSLRAEDTAVYYCARGGSDTVIGDWFAYWGQGTLVTVSS[in this place human IgG1 constant region]
light: DIQLTQSPSSLSASVGDRVTITCRASQSIGSYLAWYQQKPGKAPKLLIYDASNLETGVPSRFSGSGSGTDFTLTISSLQPEDFATYYCQQGYYLWTFGQGTKVEIKRTVAAPSVFIFPPSDEQLKSGTASVVCLLNNFYPREAKVQWKVDNALQSGNSQESVTEQDSKDSTYSLSSTLTLSKADYEKHKVYACEVTHQGLSSPVTKSFNRGEC
notes: Not masked; WT hIgG1 Fc
With B2, the “EC50 (nM), Jurkat-CD137-NFkB-luciferase reporter, in the presence of CHO-K1-hFcγRIIb cells as cross-linker” value in assay [3] turned out to be 0.27 nM. Moreover, the “EC50 (nM), IL-2 secretion of SEA-stimulated human PBMC, Donor #102” value in [4] was 0.047 nM. Also, the Masking efficiency in assay [5] is 1 fold. Further, the affinity in assay [1], expressed as Kd, was 0.176 nM.

B3: TY21242 (antibody, human IgG4 S228P, kappa)
heavy: EVQLVESGGGLVQPGGSLRLSCAASGFSLSTGGVGVGWIRQAPGKGLEWLALIDWADDKYYSPSLKSRLTISRDNSKNTLYLQLNSLRAEDTAVYYCARGGSDTVIGDWFAYWGQGTLVTVSSASTKGPSVFPLAPCSRSTSESTAALGCLVKDYFPEPVTVSWNSGALTSGVHTFPAVLQSSGLYSLSSVVTVPSSSLGTKTYTCNVDHKPSNTKVDKRV[in this place human IgG4 Fc with S228P (EU numbers)]
light: DIQLTQSPSSLSASVGDRVTITCRASQSIGSYLAWYQQKPGKAPKLLIYDASNLETGVPSRFSGSGSGTDFTLTISSLQPEDFATYYCQQGYYLWTFGQGTKVEIKRTVAAPSVFIFPPSDEQLKSGTASVVCLLNNFYPREAKVQWKVDNALQSGNSQESVTEQDSKDSTYSLSSTLTLSKADYEKHKVYACEVTHQGLSSPVTKSFNRGEC
notes: Not masked; WT hIgG4 Fc; also called parental anti-CD137 antibody; TY21242 (parental)
As to B3, the Masking efficiency in assay [6], in assay [7], in assay [8] and in assay [5] was 1 fold in each case. Further, the Kd in [9] was 0.282 nM; in assay [10], 0.292 nM; in assay [11] it was 0.355 nM; in [1], 0.199 nM; in assay [12], 1800 nM; in assay [13], 2300 nM.

B4: TY24118 (antibody, human IgG1, kappa)
heavy: EVQLVESGGGLVQPGGSLRLSCAASGFSLSTGGVGVGWIRQAPGKGLEWLALIDWADDKYYSPSLKSRLTISRDNSKNTLYLQLNSLRAEDTAVYYCARGGSDTVIGDWFAYWGQGTLVTVSS[in this place human IgG1 constant region with changes]
light: DIQLTQSPSSLSASVGDRVTITCRASQSIGSYLAWYQQKPGKAPKLLIYDASNLETGVPSRFSGSGSGTDFTLTISSLQPEDFATYYCQQGYYLWTFGQGTKVEIKRTVAAPSVFIFPPSDEQLKSGTASVVCLLNNFYPREAKVQWKVDNALQSGNSQESVTEQDSKDSTYSLSSTLTLSKADYEKHKVYACEVTHQGLSSPVTKSFNRGEC
B4 showed an EC50 in [14] of 0.275 nM. The Kd in [15] came to 0.115 nM. In addition, the Masking efficiency in assay [16] and in [17] was 1 fold in each case.

For the origin of these results see patent publication US20250188179A1 (ADAGENE PTE, published 2025).
